Laboratory results as given in patent US20240228579A1 (Innovent, published 2024).
Each block holds one binder with its values, some of them ahead of it.

Molecular target: T1, Claudin18.2 (cp0007, Genscript) (UniProt P56856-2 1-261, limits assumed)
T1 construct: Bought antigen used in BLI; also called Claudin18.2 antigen; the antigen
T1 sequence (looked up): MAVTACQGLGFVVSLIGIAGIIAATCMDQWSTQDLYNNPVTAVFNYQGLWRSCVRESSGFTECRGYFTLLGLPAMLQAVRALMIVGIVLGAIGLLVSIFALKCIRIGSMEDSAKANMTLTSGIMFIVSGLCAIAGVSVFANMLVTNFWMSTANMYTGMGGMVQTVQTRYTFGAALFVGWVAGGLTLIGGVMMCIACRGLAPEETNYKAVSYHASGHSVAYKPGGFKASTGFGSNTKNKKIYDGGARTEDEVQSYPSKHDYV
Assay: BLI (Octet), antibody on AHC sensor, Claudin18.2 100 nM

- Kd: ≤ 3.32 nM
- Response: 0.149 nm
- kon: 60200 M⁻¹ s⁻¹
B1: Fcmut-01 (antibody, human IgG1, kappa)
heavy: QVQLVQSGAEVKKPGSSVKVSCKASGYSFSSYNIHWVRQAPGQGLEWMGYIAPFQGDSRYNQKFKGRVTITADKSTSTAYMELSSLRSEDTAVYYCARLNRGNSLDYWGQGTLVTVSS[human IgG1 constant region not printed]
light: DIVMTQSPDSLAVSLGERATINCKSSQSLFNSGNQRNYLTWYQQKPGQPPKLLIYWASTRESGVPDRFSGSGSGTDFTLTISSLQAEDVAVYYCQNNYIYPLTFGGGTKVEIKRTVAAPSVFIFPPSDEQLKSGTASVVCLLNNFYPREAKVQWKVDNALQSGNSQESVTEQDSKDSTYSLSSTLTLSKADYEKHKVYACEVTHQGLSSPVTKSFNRGEC
notes: IgG1-WT monoclonal antibody against human claudin18.2; parent and control of Fcmut-02 to Fcmut-24; Biotin-labelled in the C1q assay

- Kd: 3.17 nM
- Response: 0.153 nm
- koff: 0.0002 s⁻¹
- kon: 63200 M⁻¹ s⁻¹
B2: Fcmut-05 (antibody, human IgG1, kappa, L234A L235A)
heavy: QVQLVQSGAEVKKPGSSVKVSCKASGYSFSSYNIHWVRQAPGQGLEWMGYIAPFQGDSRYNQKFKGRVTITADKSTSTAYMELSSLRSEDTAVYYCARLNRGNSLDYWGQGTLVTVSSASTKGPSVFPLAPSSKSTSGGTAALGCLVKDYFPEPVTVSWNSGALTSGVHTFPAVLQSSGLYSLSSVVTVPSSSLGTQTYICNVNHKPSNTKVDKKV[human IgG1 Fc with changes not printed]
light: B1 light
notes: IgG1-mut of Fcmut-01: L234A + L235A (EU index); also called LALA mutation
